# Test results reported in the supplement of paper PMC8728848.
# The list shows a part of the results.
# B1: Gal 2 (Homo sapiens), P05162 (protein)
# chain: MTGELEVKNMDMKPGSTLKITGSIADGTDGFVINLGQGTDKLNLHFNPRFSESTIVCNSLDGSNWGQEQREDHLCFSPGSEVKFTVTFESDKFKVKLPDGHELTFPNRLGHSHLSYLSVRGGFNMSSFKLKE
# Columns and labels:
# Experiment in all cases: glycan array binding signal (z-score within array); higher = stronger binding
# Conditions in all cases: glycan notation: IUPAC condensed, linker removed
# [1] = target: Neu5Ac(a2-6)Gal(b1-4)GlcNAc(b1-2)[Neu5Ac(a2-6)Gal(b1-4)GlcNAc(b1-4)]Man(a1-3)[GlcNAc(b1-4)][Neu5Ac(a2-6)Gal(b1-4)GlcNAc(b1-2)[Neu5Ac(a2-6)Gal(b1-4)GlcNAc(b1-6)]Man(a1-6)]Man(b1-4)GlcNAc(b1-4)GlcNAc
# How it was run: (§1)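 The binding signal is a Z-score computed within each array and averaged over linkers. Arrays of the same protein sequence at different concentrations or buffers were also averaged together. Data originate from 3228 arrays in the Consortium for Functional Glycomics database, kept only where the protein sequence was available.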
# [2] = target: Neu5Ac(a2-6)Gal(b1-4)GlcNAc(b1-2)[Neu5Ac(a2-6)Gal(b1-4)GlcNAc(b1-4)]Man(a1-3)[GlcNAc(b1-4)][Neu5Ac(a2-6)Gal(b1-4)GlcNAc(b1-4)Man(a1-6)]Man(b1-4)GlcNAc(b1-4)GlcNAc
# How it was run: as §1
# [3] = target: Neu5Ac(a2-6)Gal(b1-4)GlcNAc(b1-2)[Neu5Ac(a2-6)Gal(b1-4)GlcNAc(b1-6)]Man(a1-6)[Neu5Ac(a2-6)Gal(b1-4)GlcNAc(b1-2)Man(a1-3)][GlcNAc(b1-4)]Man(b1-4)GlcNAc(b1-4)GlcNAc
# How it was run: as §1
# [4] = target: Neu5Ac(a2-6)Gal(b1-4)GlcNAc(b1-3)Gal(b1-3)GlcNAc
# How it was run: as §1
# [5] = target: Neu5Ac(a2-6)Gal(b1-4)GlcNAc(b1-3)Gal(b1-4)GlcNAc
# How it was run: as §1
# [6] = target: Neu5Ac(a2-6)Gal(b1-4)GlcNAc(b1-3)Gal(b1-4)GlcNAc(b1-2)Man(a1-3)[Neu5Ac(a2-6)Gal(b1-4)GlcNAc(b1-3)Gal(b1-4)GlcNAc(b1-2)Man(a1-6)]GalNAc
# How it was run: as §1
# [7] = target: Neu5Ac(a2-6)Gal(b1-4)GlcNAc(b1-3)Gal(b1-4)GlcNAc(b1-3)Gal(b1-4)GlcNAc
# How it was run: as §1
# [8] = target: Neu5Ac(a2-6)Gal(b1-4)GlcNAc(b1-3)Gal(b1-4)GlcNAc(b1-3)Gal(b1-4)GlcNAc(b1-2)Man(a1-3)[Neu5Ac(a2-6)Gal(b1-4)GlcNAc(b1-3)Gal(b1-4)GlcNAc(b1-3)Gal(b1-4)GlcNAc(b1-2)Man(a1-6)]GalNAc
# How it was run: as §1
# [9] = target: Neu5Ac(a2-6)Gal(b1-4)GlcNAc(b1-3)Gal(b1-4)GlcNAc(b1-3)GalNAc
# How it was run: as §1
# [10] = target: Neu5Ac(a2-6)Gal(b1-4)GlcNAc(b1-3)Gal(b1-4)GlcNAc(b1-3)[Neu5Ac(a2-6)Gal(b1-4)GlcNAc(b1-3)Gal(b1-4)GlcNAc(b1-6)]GalNAc
# How it was run: as §1
# [11] = target: Neu5Ac(a2-6)Gal(b1-4)GlcNAc(b1-3)Gal(b1-4)GlcNAc(b1-6)[Gal(b1-3)]GalNAc
# How it was run: as §1
# [12] = target: Neu5Ac(a2-6)Gal(b1-4)GlcNAc(b1-3)Gal(b1-4)[Fuc(a1-3)]GlcNAc(b1-3)Gal(b1-4)[Fuc(a1-3)]GlcNAc
# How it was run: as §1
# [13] = target: Neu5Ac(a2-6)Gal(b1-4)GlcNAc(b1-3)GalNAc
# How it was run: as §1
# [14] = target: Neu5Ac(a2-6)Gal(b1-4)GlcNAc(b1-3)[Neu5Ac(a2-6)Gal(b1-4)GlcNAc(b1-6)]GalNAc
# How it was run: as §1
# [15] = target: Neu5Ac(a2-6)Gal(b1-4)GlcNAc(b1-6)GalNAc
# How it was run: as §1
# [16] = target: Neu5Ac(a2-6)Gal(b1-4)GlcNAc(b1-6)[Gal(b1-3)GlcNAc(b1-3)]Gal(b1-4)Glc
# How it was run: as §1
# [17] = target: Neu5Ac(a2-6)Gal(b1-4)GlcNAc(b1-6)[Gal(b1-3)]GalNAc
# How it was run: as §1
# [18] = target: Neu5Ac(a2-6)Gal(b1-4)GlcNAc6S
# How it was run: as §1
# Neu5Ac(a2-6)GalNAc = target: Neu5Ac(a2-6)GalNAc
# How it was run: as §1
# [19] = target: Neu5Ac(a2-6)GalNAc(b1-4)GlcNAc
# How it was run: as §1
# [20] = target: Neu5Ac(a2-6)GalNAc(b1-4)GlcNAc6S
# How it was run: as §1
# [21] = target: Neu5Ac(a2-6)GlcNAc(b1-4)GlcNAc
# How it was run: as §1
# [22] = target: Neu5Ac(a2-6)GlcNAc(b1-4)GlcNAc(b1-4)GlcNAc
# How it was run: as §1
# Neu5Ac(a2-8)Neu5Ac = target: Neu5Ac(a2-8)Neu5Ac
# How it was run: as §1
# [23] = target: Neu5Ac(a2-8)Neu5Ac(a2-3)Gal(b1-3)GalNAc(b1-4)[Neu5Ac(a2-3)]Gal(b1-4)Glc
# How it was run: as §1
# [24] = target: Neu5Ac(a2-8)Neu5Ac(a2-3)Gal(b1-3)GalNAc(b1-4)[Neu5Ac(a2-8)Neu5Ac(a2-3)]Gal(b1-4)Glc
# How it was run: as §1
# [25] = target: Neu5Ac(a2-8)Neu5Ac(a2-3)Gal(b1-4)Glc
# How it was run: as §1
# [26] = target: Neu5Ac(a2-8)Neu5Ac(a2-3)Gal(b1-4)GlcNAc
# How it was run: as §1
# [27] = target: Neu5Ac(a2-8)Neu5Ac(a2-3)[Gal(b1-3)GalNAc(b1-4)]Gal(b1-4)Glc
# How it was run: as §1
# [28] = target: Neu5Ac(a2-8)Neu5Ac(a2-3)[GalNAc(b1-4)]Gal(b1-4)Glc
# How it was run: as §1
# [29] = target: Neu5Ac(a2-8)Neu5Ac(a2-8)Neu5Ac
# How it was run: as §1
# [30] = target: Neu5Ac(a2-8)Neu5Ac(a2-8)Neu5Ac(a2-3)Gal(b1-4)Glc
# How it was run: as §1
# [31] = target: Neu5Ac(a2-8)Neu5Ac(a2-8)Neu5Ac(a2-3)[Gal(b1-3)GalNAc(b1-4)]Gal(b1-4)Glc
# How it was run: as §1
# [32] = target: Neu5Ac(a2-8)Neu5Ac(a2-8)Neu5Ac(a2-3)[GalNAc(b1-4)]Gal(b1-4)Glc
# How it was run: as §1
# [33] = target: Neu5Ac(a2-8)Neu5Ac(a2-8)Neu5Ac(a2-8)Neu5Ac(a2-3)[GalNAc(b1-4)]Gal(b1-4)Glc
# How it was run: as §1
# [34] = target: Neu5Ac(a2-8)Neu5Gc(a2-3)Gal(b1-4)GlcNAc
# How it was run: as §1
# Neu5Ac(b1-6)GalNAc = target: Neu5Ac(b1-6)GalNAc
# How it was run: as §1
# [35] = target: Neu5Ac(b2-6)Gal(b1-4)GlcNAc
# How it was run: as §1
# Neu5Ac(b2-6)GalNAc = target: Neu5Ac(b2-6)GalNAc
# How it was run: as §1
# [36] = target: Neu5Ac9Ac(a2-3)Gal(b1-4)GlcNAc
# How it was run: as §1
# [37] = target: Neu5Ac9Ac(a2-6)Gal(b1-4)GlcNAc
# How it was run: as §1
# [38] = target: Neu5Gc(a2-3)Gal(b1-3)GlcNAc
# How it was run: as §1
# [39] = target: Neu5Gc(a2-3)Gal(b1-3)[Fuc(a1-4)]GlcNAc
# How it was run: as §1
# Neu5Gc(a2-3)Gal(b1-4)Glc = target: Neu5Gc(a2-3)Gal(b1-4)Glc
# How it was run: as §1
# [40] = target: Neu5Gc(a2-3)Gal(b1-4)GlcNAc
# How it was run: as §1
binder,measurement,setting,value
B1,glycan array binding signal (z-score),[1],-0.284
same,glycan array binding signal (z-score),[2],-0.198
same,glycan array binding signal (z-score),[3],-0.233
same,glycan array binding signal (z-score),[4],-0.068
same,glycan array binding signal (z-score),[5],-0.263
same,glycan array binding signal (z-score),[6],-0.008
same,glycan array binding signal (z-score),[7],-0.353
same,glycan array binding signal (z-score),[8],0.028
same,glycan array binding signal (z-score),[9],-0.109
same,glycan array binding signal (z-score),[10],0.175
same,glycan array binding signal (z-score),[11],0.018
same,glycan array binding signal (z-score),[12],-0.229
same,glycan array binding signal (z-score),[13],-0.083
same,glycan array binding signal (z-score),[14],-0.306
same,glycan array binding signal (z-score),[15],-0.021
same,glycan array binding signal (z-score),[16],-0.21
same,glycan array binding signal (z-score),[17],0.069
same,glycan array binding signal (z-score),[18],-0.271
same,glycan array binding signal (z-score),Neu5Ac(a2-6)GalNAc,-0.259
same,glycan array binding signal (z-score),[19],-0.284
same,glycan array binding signal (z-score),[20],-0.19
same,glycan array binding signal (z-score),[21],-0.171
same,glycan array binding signal (z-score),[22],-0.178
same,glycan array binding signal (z-score),Neu5Ac(a2-8)Neu5Ac,-0.23
same,glycan array binding signal (z-score),[23],-0.254
same,glycan array binding signal (z-score),[24],-0.09
same,glycan array binding signal (z-score),[25],-0.379
same,glycan array binding signal (z-score),[26],-0.102
same,glycan array binding signal (z-score),[27],-0.206
same,glycan array binding signal (z-score),[28],-0.27
same,glycan array binding signal (z-score),[29],-0.235
same,glycan array binding signal (z-score),[30],-0.247
same,glycan array binding signal (z-score),[31],-0.136
same,glycan array binding signal (z-score),[32],-0.116
same,glycan array binding signal (z-score),[33],-0.232
same,glycan array binding signal (z-score),[34],-0.088
same,glycan array binding signal (z-score),Neu5Ac(b1-6)GalNAc,-0.388
same,glycan array binding signal (z-score),[35],-0.244
same,glycan array binding signal (z-score),Neu5Ac(b2-6)GalNAc,-0.244
same,glycan array binding signal (z-score),[36],-0.21
same,glycan array binding signal (z-score),[37],-0.285
same,glycan array binding signal (z-score),[38],-0.248
same,glycan array binding signal (z-score),[39],-0.249
same,glycan array binding signal (z-score),Neu5Gc(a2-3)Gal(b1-4)Glc,-0.261
same,glycan array binding signal (z-score),[40],-0.265
